# Assay results as given in PubChem BioAssay AID686978 (National Center for Advancing Translational Sciences (NCATS), 2013).
# About 64,000 (15%) of roughly 420,000 compounds were called active. The inconclusive results got no clear call from the source; some entries with a clear call stand among them for comparison. The call rests on the fitted dose curve; in most records, active means well fitted inhibition curve with a large enough effect; inconclusive means small, poorly fitted or top-dose-only effect; inactive means flat fitted curve, though single readings scatter. No potency is given beside an inconclusive call; the fits are too rough.
# Assay: qHTS for Inhibitors of human tyrosyl-DNA phosphodiesterase 1 (TDP1): qHTS in cells in absence of CPT; further: nearly all actives have a fitted effect of over 55% in size
# Conditions: DT40 Tdp1-/- hTDP1 cells, no CPT, ATP luminescence, 48 h; activity change, negative = growth inhibition: at 46.2 µM (top of the series) unless noted
# How it was run: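 DT40 Tdp1-/-;hTDP1 cells, no CPT (DMSO vehicle only), 400 cells/well; compounds pin-transferred; ≥48 hr, 37 °C; CellTiter-Glo 30 min RT dark, luminescence read.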
# On the % scale 0 is the no-effect control and ±100 the full control effect; potency means the concentration at half of the fitted maximal effect; tags describe the fitted curve by direction and shape.
SMILES,Potency,"activity change, negative = growth inhibition"
CCn1c(C)nc2cc(C(=O)NNC(=O)CN(C)S(=O)(=O)c3ccc(NC(C)=O)cc3)ccc21,inactive,
OCC[C@H]1C[C@@H](O)[C@H](O)[C@@]2(CCc3ccccc3O2)O1,inactive,
Cc1nc2ccccc2c(=O)n1NC(=O)c1c(O)c2c(n(CC(C)C)c1=O)CCCC2,active: 20.6 µM,
CCOc1ccccc1C1CC(=O)NC2=C1C(=O)CC(C)(C)C2 (stereo not drawn),"inconclusive [inhibitor, single point]",
CN(C)C(=O)/C(C#N)=C\c1cc(Br)c(Sc2ccc(Cl)cc2)o1,active: 14.6 µM,
Cc1ccc(S(=O)(=O)c2nc(S(=O)(=O)c3ccccc3)sc2N2CCN(CCO)CC2)cc1,"inconclusive [inhibitor, single point]",
Cc1ccc(CSc2nsc(C)c2C#N)cc1,"inconclusive [inhibitor, single point]",
CCOc1ccccc1OCCNC1CCCC1,"inconclusive [inhibitor, single point]",
COc1ccc(C(CNC(=O)c2cc(S(=O)(=O)NCc3ccco3)ccc2C)N(C)C)cc1 (stereo not drawn),,inconclusive: -33.1% [inhibitor]
CN1CCN(C2Cc3ccc(Cl)cc3Sc3ccc(F)cc32)CC1 (stereo not drawn),active: 18.4 µM,
O=C(CSc1nc2ncc(Cl)cc2[nH]1)c1c[nH]c2ccccc12,"inconclusive [inhibitor, partial curve, poor fit]",
O=C(/C=C/c1ccccc1)NCCSCc1ccccc1,,inconclusive: -38% [inhibitor]
Cc1c(NC(=O)C(C)OC(=O)COc2ccccc2)c(=O)n(-c2ccccc2)n1C (stereo not drawn),inactive,
CC(C)NS(=O)(=O)c1ccc(NC(=S)NC(=O)c2ccc(-c3ccccc3)cc2)cc1,active: 14.1 µM,
N#CC1=C(N)Oc2cc(O)ccc2C1c1ccncc1 (stereo not drawn),"inconclusive [inhibitor, single point]",
Cc1c(NC(=O)c2ccc3c(c2)OCO3)cccc1-c1nc2ccccc2o1,"inconclusive [inhibitor, single point]",
Cc1cc(C)cc(NC(=O)CCCSc2nc3ccccc3[nH]2)c1,"inconclusive [inhibitor, partial curve]",
Cc1cnc(NC(=O)c2ccc(-c3ccc([N+](=O)[O-])cc3)o2)s1,,inconclusive: -1.84% [inhibitor]
Cc1[nH]n2c(=O)cc(-c3ccccc3Cl)nc2c1-c1ccccc1,active: 2.59 µM,
CN(C)C/C=C/C(=O)Nc1cccc(-c2c[nH]c3ncnc(Oc4ccc(NC(=O)CC(=O)Nc5ccc(F)cc5)cc4F)c23)c1,inactive,
COc1ccc(C(=O)Nc2cccc(NC(=O)c3cccs3)c2)cc1,"inconclusive [inhibitor, partial curve, poor fit]",
C[C@@H]1O[C@H](C2CCCC2)CC2=C1C(=O)OC(C)(C)O2,inactive,
O=C1c2ccccc2C(=O)N1CCc1nc2ccccc2c(=O)n1Cc1ccco1,inactive,
Cc1ccccc1OCc1ccc(C(=O)N2CC(C)OC(C)C2)o1 (stereo not drawn),"inconclusive [inhibitor, single point]",
Cc1ccc(C(=O)Nc2ncccc2O)o1,"inconclusive [inhibitor, single point]",

SMILES,Potency,"activity change, negative = growth inhibition"
O=C(NCCc1ccccc1)C1CCN(C2CCN(Cc3ccc(CO)o3)CC2)CC1,,inconclusive: -30.9% [inhibitor]
Cc1ccc(CCC(=O)Nc2ccc(CC(=O)O)cc2)o1,"inconclusive [inhibitor, single point]",
COc1ccc(C(=O)N/C(=C\c2ccco2)C(=O)NC2CCS(=O)(=O)C2)cc1 (stereo not drawn),inactive,
Cc1cc2ccccn2c1C(=O)c1ccc(C#N)cc1,active: 23.1 µM,
CCc1nc2ccc(C(=O)NCCN(C)C)cn2c1N(CC)CCOC,inactive,
O=c1nc(/C=C/c2cc([N+](=O)[O-])ccc2Cl)cc(C(F)(F)F)[nH]1,active: 23.1 µM,
CCOC(=O)C1CCCN(C(=O)Cn2ncc3c([nH]c4ccccc43)c2=O)C1 (stereo not drawn),"inconclusive [inhibitor, single point]",
Clc1ccccc1-c1nn2c(Cn3cnc4ccccc43)nnc2s1,"inconclusive [inhibitor, single point]",
CCOc1ccc(-c2nc(CSCC(=O)NC3CCCc4ccccc43)c(C)o2)cc1 (stereo not drawn),"inconclusive [inhibitor, single point]",
CSCCC(NC(=O)COc1ccccc1)C(=O)N1CCN(c2ccccc2F)CC1 (stereo not drawn),active: 23.1 µM,
Cc1ccc(SCC2(O)CCN(S(=O)(=O)c3ccc(Cl)cc3)CC2)cc1,"inconclusive [inhibitor, single point]",
O=[N+]([O-])c1ccc(/C=C/c2ccc3cccc([N+](=O)[O-])c3n2)cc1,"inconclusive [inhibitor, full curve]",
COc1cc(C(=O)N2CCCN(c3nc4cc(C)ccc4cc3C#N)CC2)cc(OC)c1OC,"inconclusive [inhibitor, single point]",
Cc1ccc(CNC(=O)CC2Oc3ccccc3NC2=O)cc1 (stereo not drawn),inactive,
CC(C)c1c(Cl)c(O)c(-c2ccccc2)c(=O)n1-c1ccc(F)cc1,inactive,
CCN(CC)c1nc(OC)nc(-n2nnc(C(C)=O)c2C)n1,"inconclusive [inhibitor, single point]",
O=C1[C@H](Oc2ccccc2)[C@@H](c2ccncc2)N1c1ccncc1,inactive,
COc1ccc(N2C(=O)C3C(C2=O)C3(c2ccccc2)c2ccccc2)cc1 (stereo not drawn),"inconclusive [inhibitor, partial curve]",
N#C/C(=C(/O)C(Cl)c1ccccc1)c1nc2ccccc2s1 (stereo not drawn),active: 13 µM,
O=C(COc1ccc(S(=O)(=O)NC2CCCCC2)cc1)N1CCN(c2cccc(Cl)c2)CC1,active: 16.4 µM,
Cc1cccc(C)c1NC(=O)C1(C)CSCC(=O)N1CCc1ccccc1F (stereo not drawn),"inconclusive [inhibitor, single point]",
CC(O)(COc1ccccc1)c1ccc2c(c1)CN(Cc1cccnc1)CCO2 (stereo not drawn),inactive,
CCOC(=O)C1C(C)=CC(=O)CC1c1ccco1 (stereo not drawn),"inconclusive [inhibitor, full curve, poor fit]",
CN1/C(=C\C(=O)COC(=O)c2ccco2)C(C)(C)c2ccccc21,"inconclusive [inhibitor, single point]",
C=CCSc1nnc(NC(=O)c2ccc3c(c2)OCCO3)s1,inactive,

SMILES,Potency,"activity change, negative = growth inhibition"
NCCCn1c(C(=O)c2ccc(Cl)cc2)c2ccc(C(F)(F)F)cc2[n+]1[O-],"inconclusive [inhibitor, single point]",
CC(C)c1ccc(NS(=O)(=O)c2ccc3[nH]cc(C(=O)NC4CCCC4)c(=O)c3c2)cc1,inactive,
Cc1ccc(N2CC3=C(C2=O)C(c2ccc(Br)cc2)NC(=O)N3C)cc1 (stereo not drawn),"inconclusive [inhibitor, single point]",
O=C(NCCN1CCOCC1)c1c[nH]c2ccc(S(=O)(=O)N3CCOCC3)cc2c1=O,inactive,
O=C(O)c1ccc2ncc(NC(=O)c3ccc(F)cc3)c(=O)n2c1,inactive,
Cc1cc(C)cc(N=Cc2[nH]c3ccc(Br)c(Cl)c3c2O)c1,"inconclusive [inhibitor, single point]",
Cc1cccnc1C(NC(=O)C1CCN(Cc2ccc(Cl)cc2)CC1)c1ccc(F)cc1 (stereo not drawn),active: 20.6 µM,
O=C(Nc1ccsc1C(=O)O)c1ccc(Cl)cc1,"inconclusive [inhibitor, single point]",
Cc1cc(SCC(=O)Nc2cccc(S(=O)(=O)NC3=NCCCCC3)c2)c(C)cc1Br,"inconclusive [inhibitor, single point]",
N#Cc1c(-c2cccc(Br)c2)cc(-c2cccnc2)nc1N,"inconclusive [inhibitor, partial curve]",
CC(C)=CCCC(C)NC(=O)NC1CCCCC1 (stereo not drawn),active: 16.4 µM,
COCCCn1c(=O)c2sccc2n(Cc2ccccc2C)c1=O,"inconclusive [inhibitor, single point]",
CCn1c(=O)cc(SCC(=O)Nc2ccc(C)c(F)c2)c2ccccc21,"inconclusive [inhibitor, single point]",
CN(C)/C=N/c1ncc(C(=O)c2ccc(Cl)cc2Cl)s1,"inconclusive [inhibitor, single point]",
Cc1nc(N)sc1-c1csc(Nc2ncccn2)n1,active: 18.4 µM,
CC(=O)N1CCN(c2ccc(NC(=O)c3ccccc3Br)cc2Cl)CC1,"inconclusive [inhibitor, single point]",
Cc1ccccc1CNC(=O)c1ccc(NC(=O)c2nsc3ccccc23)cc1,active: 11.6 µM,
CCOC(=O)[C@@H]1[C@H]2COc3ccc(Br)cc3[C@@H]2N2C(=O)N(c3cccc(F)c3)C(=O)[C@@]12C,active: 18.4 µM,
Cc1ccc(NC(=O)Cn2nc(C)c([N+](=O)[O-])c2C)cc1C,inactive,
COc1cc2[nH]c(=O)n(CCC(=O)N3CCN(c4cc(Cl)ccc4C)CC3)c(=O)c2cc1OC,"inconclusive [inhibitor, single point]",
O=C1CC(c2ccsc2)c2ccc3ccccc3c2N1 (stereo not drawn),"inconclusive [inhibitor, single point]",
CCCCN=C1NC(=O)C(CC(=O)Nc2ccc(Cl)cc2)S1 (stereo not drawn),"inconclusive [inhibitor, partial curve]",
CN=C1C=C/C(=N/N=c2\ccn(O)cc2C)C=C1C,"inconclusive [inhibitor, single point]",
